# The whole screen tested about 330,000 compounds, of which about 300 (0.091%) were called active. The inconclusive results got no clear call from the source; some entries with a clear call stand among them for comparison. Calls come from the whole dose curve; as a rule, active = well fitted inhibition curve with a large enough effect; inconclusive = small, poorly fitted or top-dose-only effect, or effect the other way, or another doubt; inactive = no such curve, though single readings can be large or run the other way. No potency is given beside an inconclusive call; the fits are too rough.
# Molecular target: Lysosomal acid glucosylceramidase (Homo sapiens) (UniProt P04062)
# Assay: qHTS Assay for Inhibitors and Activators of N370S glucocerebrosidase as a Potential Chaperone Treatment of Gaucher Disease;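 for activity change, negative = inhibition: 0% = full enzyme activity and -100% = no enzyme basal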
# Conditions: N370S GC spleen homogenate, 4MU-glucoside fluorescence; activity change, negative = inhibition: at 59.4 µM (top of the series) unless noted
# Potency is the fitted concentration of half-maximal effect.
Compound,Potency,"activity change, negative = inhibition"
C=CCn1cc(C(=O)NCCOC)c(=O)c2cc(S(=O)(=O)N3CCCCCC3)ccc21,"inconclusive [activator, single point]",–
CC1(C)CC(=O)C2=C(C1)OC(/N=C/N1CCOCC1)=C(C#N)C2c1ccccc1 (centres undefined),"inconclusive [activator, partial curve]",–
COc1ccc(C2CC(c3cccs3)=NN2c2ccc(F)cc2)cc1OC (centres undefined),"inconclusive [activator, partial curve]",–
CN(C(=O)c1ccc(OCC=C(c2ccccc2)c2ccccc2)cc1)c1ccccc1I,inactive,–
CCCOc1cccc(-c2cc(C(=O)N/N=C/c3cccnc3)c3ccccc3n2)c1,"inconclusive [activator, partial curve, poor fit]",–
COC(=O)c1ccc(/C=C/c2ccc3cccc(OC)c3n2)cc1,"inconclusive [activator, partial curve]",–
CC(=O)Oc1ccccc1C1=NN(C(C)=O)C(c2ccccc2)C1 (centres undefined),"inconclusive [activator, partial curve]",–
CCOc1ccccc1OCC(=O)NC1CCCCC1,"inconclusive [activator, single point]",–
CN1CCc2c1nc1ccccc1c2N (tested in a mixture with another compound),"inconclusive [activator, partial curve]",–
Cc1noc(C)c1CSCC(=O)Nc1cc(Cl)ccc1N1CCCCC1,"inconclusive [activator, single point]",–
CCc1ccc(N(CC(=O)Nc2sc3c(c2C(=O)OC)CCCC3)S(C)(=O)=O)cc1,"inconclusive [activator, partial curve]",–
CCCCn1c(SCC(=O)Nc2cc(C(F)(F)F)cc(C(F)(F)F)c2)nnc1C(CC)N(C)C (centres undefined),"inconclusive [inhibitor, partial curve]",–
O=C(CCCCCBr)N1CCC(CC2CC(c3cccc(Br)c3)=NO2)(C(=O)NCC2CCCCC2)CC1 (centres undefined),"inconclusive [inhibitor, single point]",–
Oc1nc(-c2ccc(Br)cc2)n2ccncc12,"inconclusive [inhibitor, partial curve]",–
CCOC(=O)N/N=C(C)/C=C/c1ccccc1,inactive,–
O=C(CSCc1cccc(F)c1)NCc1ccccc1,inactive,–
Cc1c(C(=O)N2CCc3ccccc32)oc2c1C(=O)CC(C)(C)C2,inactive,–
O=c1sc2ccccc2c(=O)n1Cc1ccccc1F,"inconclusive [activator, partial curve]",–
CCOC(=O)C1CCN(C(=O)c2cc3cc4ccc(OC)cc4nc3o2)CC1,"inconclusive [activator, single point]",–
COc1ccc(OC)c(S(=O)(=O)n2cnc3cc(C)c(C)cc32)c1,"inconclusive [activator, partial curve]",–
Cc1ccccc1Nc1nc(N)nc(COC(=O)c2ccc(O)cc2)n1,inactive,–
COC(=O)CSc1nc2c(c(-c3ccco3)c1C#N)CCCC2,"inconclusive [activator, partial curve]",–

Compound,Potency,"activity change, negative = inhibition"
Cc1cc(C)nc(NC(=O)C(c2ccccc2)c2ccccc2)c1,"inconclusive [activator, single point]",–
O=S(=O)(Nc1nc2c(s1)CCCC2)c1ccc2ccccc2c1,"inconclusive [activator, partial curve]",–
Cc1noc(C)c1COC(=O)[C@H](C)NS(=O)(=O)c1ccc(Cl)c(Cl)c1,"inconclusive [activator, partial curve]",–
Cc1ccc(CN(C)C(=O)CCc2nc3sc4c(c3c(=O)[nH]2)CCCC4)o1,inactive,–
Cc1ccc(CNCCNCCO)s1,"inconclusive [inhibitor, partial curve, poor fit]",–
CC1CN=C2C(C(=O)Nc3ccccc3)=C(O)CC(c3ccccc3)N21 (centres undefined),"inconclusive [activator, single point]",–
Brc1ccc(CSc2nnc(Cc3c[nH]c4ccccc34)o2)cc1,"inconclusive [activator, partial curve]",–
O=C(NCc1ccco1)c1cnn2c(C(F)(F)F)cc(-c3ccccc3)nc12,"inconclusive [activator, partial curve]",–
CCc1ccc2nc(N(CCCN(C)C)C(=O)c3ccc(C(=O)c4ccccc4)cc3)sc2c1,"inconclusive [inhibitor, single point]",–
CCn1c(SCC(=O)NC(=O)NC(C)(C)C)nc2ccccc21,"inconclusive [activator, partial curve]",–
COc1ccccc1/C=C/c1nc(C#N)c(N(C)C)o1,"inconclusive [activator, partial curve]",–
CC(=O)c1cccc(NC(=O)CCCOc2ccc(C)cc2)c1,"inconclusive [activator, single point]",–
COc1ccc(C(=O)OC(C(=O)c2ccc(C)cc2)c2ccccc2)cc1 (centres undefined),"inconclusive [activator, partial curve]",–
COc1cc(Cl)c(S(=O)(=O)N2CCCC2)cc1Cl,inactive,–
CCOc1ccccc1NC(=S)N1CCC(NC(=O)NC23CC4CC(CC(C4)C2)C3)CC1,"inconclusive [inhibitor, full curve, poor fit]",–
COc1cccc(NC(=O)CSc2nc3ccccc3nc2N2CCOCC2)c1,"inconclusive [activator, single point]",–
C#CCOCCOCCOCCNc1nc(N2CCN(C(=O)CCCCCCCCCCNC(=O)[C@@H](CCSC)n3cc(CCO)nn3)CC2)nc(N2CCN(C(=O)CCCCCCCCCCNC(=O)[C@H]([C@@H](C)CC)n3cc(CCCCCN)nn3)CC2)n1,"inconclusive [inhibitor, single point]",–
COc1ccc(-n2nc3ccc(N)cc3n2)cc1Cl,"inconclusive [activator, single point]",–
Cc1ccc(NC(=O)CSc2nncn2N)cc1C,inactive,–
COc1cn(-c2ccccc2)nc1C(=O)Nc1ccc(C)cc1,"inconclusive [activator, single point]",–
O=C(CSc1ccccn1)Nc1ccc(Cl)cn1,–,inconclusive: 33.1% [activator]
C=CCc1c(C)nc(-c2ccccc2)nc1N/N=C/c1ccncc1,"inconclusive [inhibitor, partial curve]",–

Compound,Potency,"activity change, negative = inhibition"
COc1cc(NS(C)(=O)=O)ccc1Nc1c2ccccc2nc2ccccc12,"inconclusive [activator, partial curve]",–
N#Cc1nc(-c2ccc(Cl)cc2)oc1NCC1CCCO1 (centres undefined),"inconclusive [activator, partial curve]",–
CS(=O)(=O)Nc1ccc(C2=NN(C(=O)C3CCCCC3)C(c3cccs3)C2)cc1 (centres undefined),"inconclusive [activator, single point]",–
COc1ccc(N(C(=O)c2snc(C(N)=O)c2N)C(C(=O)NCc2ccccc2)c2ccc(F)cc2)c(OC)c1 (centres undefined),"inconclusive [activator, single point]",–
COC(=O)CSc1nc(N)c(C#N)c(-c2ccco2)c1C#N,inactive,–
COc1ccc(N(CC(=O)Nc2cccc(F)c2)S(=O)(=O)c2c(C)[nH]c(=O)[nH]c2=O)cc1,active: 11.2 µM,–
COc1ccccc1C(=O)Nc1ccc(Oc2ncnc3sc(-c4ccccc4)cc23)cc1,inactive,–
CC/C(=C\C1CCCCC1)C(NP(=O)(c1ccccc1)c1ccccc1)c1ccccc1 (centres undefined),"inconclusive [activator, single point]",–
O=C(OCC(=O)N1CCN(c2ccccc2)CC1)c1ccccc1NCCO,"inconclusive [activator, partial curve]",–
COc1cc(-c2nnn(CC(=O)N3CCOCC3)n2)cc(OC)c1OC,inactive,–
C#CCOCCOCCOCCNc1nc(N2CCN(C(=O)CCCCCCCCCCNC(=O)[C@H]([C@@H](C)CC)n3cc(CCCCCN)nn3)CC2)nc(N2CCN(C(=O)CCCCCCCCCCNC(=O)[C@H](CCCCN)n3cc(CCCC(=O)O)nn3)CC2)n1,"inconclusive [inhibitor, partial curve]",–
Cc1ccc(-c2nc(-c3nccc4ccccc34)oc2-c2ccccc2)cc1,"inconclusive [activator, single point]",–
Cc1ccnc(SCc2cn3c(C)cc(C)nc3n2)n1,inactive,–
CCc1cccc(NC(=S)N(CCCN2CCOCC2)C(C)c2cc3cccc(OC)c3o2)c1 (centres undefined),"inconclusive [inhibitor, partial curve]",–
Cc1cccn2c(=O)c3cc(C(=O)N4CCCC(C)C4)sc3nc12 (centres undefined),"inconclusive [activator, full curve]",–
O=C(Nc1ccccc1)OCCN1CCN(Cc2ccccc2)CCC1=O,"inconclusive [inhibitor, single point]",–
Cc1ccc(S(=O)(=O)Nc2cccc(CP(=O)(c3ccccc3)c3ccccc3)c2)cc1,"inconclusive [activator, partial curve]",–
COc1ccccc1N(CC(=O)Nc1cccc(C(F)(F)F)c1)S(C)(=O)=O,"inconclusive [activator, single point]",–
CCOCCCNC(=O)c1c[nH]c2cc(C)ccc2c1=O,"inconclusive [inhibitor, single point]",–
OC1(c2ccc(Cl)c(C(F)(F)F)c2)CCN(CCCC(c2ccc(F)cc2)c2ccc(F)cc2)CC1,inactive,–
